{
  "source": "PubChem BioAssay AID504332",
  "about": "(National Center for Advancing Translational Sciences (NCATS), 2011)",
  "note": "“And” between values parts separate entries of the source, which are not always exact repeats. Identical values can stand only once. The whole screen tested about 350,000 compounds, of which about 31,000 (8.9%) were called active. This list was built around the results that the source calls inconclusive (neither active nor inactive); the mix of calls is not that of the screen. Calls follow the shape of the dose curve; as a rule, active = well fitted inhibition curve with a large enough effect; inconclusive = small, poorly fitted or top-dose-only effect; inactive = no such curve, though single readings can be large or run the other way. Where the call is inconclusive, the potency comes from a doubtful curve fit. % is scaled to controls: 0 for no effect and ±100 for the full control effect; potency is read from the fitted curve at half-maximal effect; tags tell the direction and shape of the fitted curve.",
  "data": [
    {"target": "Histone-lysine N-methyltransferase EHMT2 (Homo sapiens) (UniProt Q96KQ7)", "sequence (Q96KQ7 whole entry, looked up)": "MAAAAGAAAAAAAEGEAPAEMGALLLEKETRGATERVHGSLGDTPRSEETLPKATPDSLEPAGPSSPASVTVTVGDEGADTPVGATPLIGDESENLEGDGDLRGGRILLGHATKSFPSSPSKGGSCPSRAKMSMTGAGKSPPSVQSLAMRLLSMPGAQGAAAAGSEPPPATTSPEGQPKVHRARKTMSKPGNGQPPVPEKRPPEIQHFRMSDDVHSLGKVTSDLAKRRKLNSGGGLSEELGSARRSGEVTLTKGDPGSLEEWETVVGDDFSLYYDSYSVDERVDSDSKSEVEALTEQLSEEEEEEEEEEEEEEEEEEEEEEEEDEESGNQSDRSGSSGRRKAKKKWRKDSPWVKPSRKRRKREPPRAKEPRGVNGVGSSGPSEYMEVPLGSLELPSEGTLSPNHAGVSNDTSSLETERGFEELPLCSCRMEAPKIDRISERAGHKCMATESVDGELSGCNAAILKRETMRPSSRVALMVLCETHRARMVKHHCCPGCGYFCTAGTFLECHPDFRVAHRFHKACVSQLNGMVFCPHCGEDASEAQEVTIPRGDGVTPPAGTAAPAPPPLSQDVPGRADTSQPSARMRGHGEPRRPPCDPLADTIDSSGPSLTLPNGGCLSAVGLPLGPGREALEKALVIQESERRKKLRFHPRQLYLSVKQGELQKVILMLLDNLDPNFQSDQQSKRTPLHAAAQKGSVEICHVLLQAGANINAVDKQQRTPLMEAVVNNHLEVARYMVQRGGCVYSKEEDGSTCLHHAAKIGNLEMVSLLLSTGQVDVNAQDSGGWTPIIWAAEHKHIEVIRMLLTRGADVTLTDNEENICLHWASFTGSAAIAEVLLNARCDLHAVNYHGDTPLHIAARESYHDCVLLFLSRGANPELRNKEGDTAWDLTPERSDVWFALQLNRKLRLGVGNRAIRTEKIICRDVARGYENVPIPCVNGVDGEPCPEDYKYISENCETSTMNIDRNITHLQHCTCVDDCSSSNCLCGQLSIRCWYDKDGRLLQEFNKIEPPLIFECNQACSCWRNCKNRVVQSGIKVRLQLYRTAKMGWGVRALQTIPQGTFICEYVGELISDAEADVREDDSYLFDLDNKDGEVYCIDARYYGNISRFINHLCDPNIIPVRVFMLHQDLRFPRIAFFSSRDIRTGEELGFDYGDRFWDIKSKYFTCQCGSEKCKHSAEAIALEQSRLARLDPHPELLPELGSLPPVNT", "test": "qHTS Assay for Inhibitors of Histone Lysine Methyltransferase G9a; also: nearly all actives have a fitted effect of over 75% in size", "conditions": "G9a H3K9 monomethylation, AlphaScreen, 2 h; activity, negative = inhibition: at 59 µM (top of the series) unless noted", "method_in_brief": "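Readings reflect AlphaScreen signal from monomethyl-H3K9 antibody detection. HMT at 20 nM; substrate b-H3K9 500 nM; cofactor SAM 20 uM; 2 h RT reaction; compounds tested as titrations in qHTS with 15 min preincubation.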", "values": [
      {"smiles": "CC(=O)NC(N(C#N)c1nc(Cl)nc(N(C)C)n1)C(Cl)(Cl)Cl", "note": "(configuration not stated)", "Potency": "inconclusive: 79.4 µM [inhibitor, single point]"},
      {"smiles": "O=C(Nc1nnc(C2=COCCO2)o1)c1ccc(S(=O)(=O)N2CCCCC2)cc1", "Potency": "inconclusive: 89.1 µM [inhibitor, single point]"},
      {"smiles": "CCN(CC)S(=O)(=O)c1ccc2c(c1)nc(CN(C)C(=O)Nc1ccc(F)cc1)n2C", "Potency": "inconclusive: 25.1 µM [inhibitor, partial curve, poor fit]"},
      {"smiles": "Cc1ccc(-n2c(N)c(C(N)=O)sc2=S)c(C)c1", "Potency": "active: 8.91 µM"},
      {"smiles": "CN(C)c1ccc(NC(=O)c2ccc3nc[nH]c3c2)cc1", "Potency": "inconclusive: 14.1 µM [inhibitor, partial curve, poor fit]"},
      {"smiles": "Cc1ccc(OCCCCn2cnc3ccccc32)cc1", "Potency": "inconclusive: 31.6 µM [inhibitor, single point] and inconclusive: 89.1 µM [inhibitor, single point]"},
      {"smiles": "CS(=O)(=O)c1ccc(C(=O)OCC(=O)NNC(=O)COc2ccc(Cl)cc2)cc1", "Potency": "inconclusive: 89.1 µM [inhibitor, partial curve, poor fit]"},
      {"smiles": "Cc1ccc(C(=O)Nc2cc(C)nn2CCC#N)cc1", "Potency": "inconclusive: 14.1 µM [inhibitor, partial curve]"},
      {"smiles": "COc1ccc(NC(=S)N(CCCN2CCCC2)Cc2ccco2)cc1", "Potency": "inconclusive: 39.8 µM [inhibitor, single point]"},
      {"smiles": "Cc1cccc(CN2C(=O)c3ccccc3Sc3ccc(C(=O)NCCN4CCOCC4)cc32)c1", "Potency": "inconclusive: 56.2 µM [inhibitor, partial curve, poor fit]"},
      {"smiles": "Cc1cc(C)n(CCNC(=O)CC2C(=O)NCCN2Cc2ccccc2C(F)(F)F)n1", "note": "(configuration not stated)", "Potency": "active: 44.7 µM"},
      {"smiles": "O=C(c1ccc(COCC(F)(F)F)o1)N1CCCCCC1", "activity, negative = inhibition": "inactive: 8.92% [at 102 µM]"},
      {"smiles": "CC(C)(C)c1nc(S(=O)(=O)c2ccc(Cl)cc2)c(N2CCOCC2)o1", "Potency": "inconclusive: 39.8 µM [inhibitor, single point]"},
      {"smiles": "Cc1ccc2nc(Cl)c3cc(C(=O)NCCCN4CCCC4)sc3c2c1", "Potency": "active: 50.1 µM"},
      {"smiles": "COCc1c(C(=O)N2CCN(c3ccc(C(F)(F)F)cn3)CC2)oc2ccccc12", "activity, negative = inhibition": "inactive: 13.1%"},
      {"smiles": "COc1ccc(C(=O)C(c2ccccc2)N2CCOCC2)cc1", "note": "(configuration not stated)", "Potency": "active: 50.1 µM"},
      {"smiles": "O=C(c1ccc([N+](=O)[O-])cc1)N1CCN(c2cccc3[nH]ccc23)CC1", "Potency": "active: 50.1 µM"},
      {"smiles": "O=C(COC(=O)Cn1cnc2ccccc2c1=O)NCc1ccccc1Cl", "activity, negative = inhibition": "inactive: -6.99% [at 102 µM]"},
      {"smiles": "CC1=Nc2ccccc2N=C(NC(=O)CN2CCN(c3ccc(F)cc3)CC2)C1c1ccccc1", "note": "(configuration not stated)", "activity, negative = inhibition": "inconclusive: -69.8% [inhibitor]"},
      {"smiles": "O=C1CC(c2ccco2)Cc2nc(N3CCc4ccccc4C3)ncc21", "note": "(configuration not stated)", "Potency": "active: 44.7 µM"},
      {"smiles": "COc1ccccc1CNc1cncnc1", "Potency": "inconclusive: 31.6 µM [inhibitor, single point]"},
      {"smiles": "CCOc1ccc(-c2cc(NC(=O)c3cccc(Cl)c3)c(C(=O)OC)s2)cc1", "activity, negative = inhibition": "inactive: 20.2%"},
      {"smiles": "O=C(CSc1nnc(-c2ccccc2)c2ccccc12)NCC1CCCO1", "note": "(configuration not stated)", "activity, negative = inhibition": "inactive: -11.8% [at 102 µM]"},
      {"smiles": "COc1ccccc1NC(=S)NNC(=O)c1nn(C)cc1Cl", "Potency": "inconclusive: 39.8 µM [inhibitor, single point]"},
      {"smiles": "COc1ccc(C(Nc2ccccn2)c2c(NC(=O)c3ccco3)sc(C)c2C)cc1OC", "note": "(configuration not stated)", "Potency": "inconclusive: 89.1 µM [inhibitor, single point]"},
      {"smiles": "COC(=O)c1ccccc1NC(=O)COC(=O)/C=C/c1ccco1", "Potency": "active: 50.1 µM"},
      {"smiles": "Cc1cc(C)cc(NS(=O)(=O)c2ccc(NC(=S)NC(=O)c3ccc(Br)o3)cc2)c1", "Potency": "inconclusive: 7.08 µM [inhibitor, full curve, poor fit]"},
      {"smiles": "CCOC(=O)Cc1csc(NC(=O)c2ccc(C)o2)n1", "Potency": "inconclusive: 35.5 µM [inhibitor, partial curve, poor fit]"},
      {"smiles": "Cn1c(=O)c(=O)n(C)c2cc(N3CCCCC3)c(NS(=O)(=O)c3ccc(Br)cc3)cc21", "Potency": "inconclusive: 50.1 µM [inhibitor, partial curve, poor fit]"},
      {"smiles": "O=C(c1ccc(F)cc1F)N1CCC(c2nc(-c3ccc(S(=O)(=O)N4CCCC4)cc3)no2)CC1", "activity, negative = inhibition": "inactive: -0.305%"},
      {"smiles": "Cc1cccc(C)c1OCC(N)C(C)C", "note": "(configuration not stated)", "Potency": "active: 1.41 µM and active: 3.77 µM"},
      {"smiles": "COc1ccccc1CCC(=O)OCC(=O)NC1CC1", "Potency": "inconclusive: 89.1 µM [inhibitor, single point]"},
      {"smiles": "COc1ccc(C2C(C(C)=O)=C(O)C(=O)N2c2ccccn2)cc1", "note": "(configuration not stated)", "activity, negative = inhibition": "inactive: -14.2% [at 102 µM]"},
      {"smiles": "COc1ccccc1CCNC(=O)C(=O)NCCC1CCCCN1S(=O)(=O)c1ccccc1", "note": "(configuration not stated)", "Potency": "inconclusive: 79.4 µM [inhibitor, partial curve, poor fit]"},
      {"smiles": "Cc1nc2ccccc2c(=O)n1NC(=O)c1cncc(Br)c1", "activity, negative = inhibition": "inactive: 4.43% [at 102 µM]"},
      {"smiles": "C=CCOc1ccccc1CNc1ccc2c(c1)OCCO2", "Potency": "active: 8.91 µM"},
      {"smiles": "CCOC(=O)CNC(=O)CCCCCC(=O)NCC(=O)OCC", "Potency": "inconclusive: 89.1 µM [inhibitor, single point]"},
      {"smiles": "Cc1cccc(N(C(=O)Nc2ccccc2)C2=NCC(C)S2)c1", "note": "(configuration not stated)", "Potency": "inconclusive: 89.1 µM [inhibitor, single point]"},
      {"smiles": "COc1ccc(C)cc1NC(=O)COC(C)=O", "activity, negative = inhibition": "inactive: -6.98%"},
      {"smiles": "CCn1c(=O)n(CC)c2cc(N3CCCC3)c(NC(=O)c3ccc(F)cc3)cc21", "Potency": "active: 44.7 µM"},
      {"smiles": "CCCOc1ccc(C(=O)Nc2nonc2-c2ccc(OCC)cc2)cc1", "activity, negative = inhibition": "inactive: -16.6%"},
      {"smiles": "CCC1(C)Cc2ccccc2-c2c1c(=O)n(-c1ccc(C)cc1)c1nnnn21", "note": "(configuration not stated)", "Potency": "active: 50.1 µM"},
      {"smiles": "COc1cc(/C=C/C(=O)N2CCCc3ccccc32)cc(OC)c1OC", "activity, negative = inhibition": "inactive: 19.5%"},
      {"smiles": "Cc1ccc(CN2CC(C(=O)N3CCN(c4ccccc4O)CC3)CC2=O)cc1", "note": "(configuration not stated)", "Potency": "inconclusive: 50.1 µM [inhibitor, partial curve]"},
      {"smiles": "C=CCc1c(OC)ccc2ccc(=O)oc12", "Potency": "inconclusive: 39.8 µM [inhibitor, single point]"},
      {"smiles": "O=C(CC1Oc2ccccc2NC1=O)NC1CCCC1", "note": "(configuration not stated)", "activity, negative = inhibition": "inactive: -6.62% [at 102 µM]"},
      {"smiles": "CN(C)CCNC(=O)c1cccc(NS(=O)(=O)c2ccc(Cl)c(Cl)c2)c1", "Potency": "inconclusive: 39.8 µM [inhibitor, partial curve, poor fit]"},
      {"smiles": "O=C(N/N=C\\c1ccc(-c2ccccc2[N+](=O)[O-])o1)C1COc2cc3ccccc3cc2O1", "note": "(configuration not stated)", "activity, negative = inhibition": "inconclusive: -74.6% [inhibitor]"},
      {"smiles": "CC(C)(C)CC(=O)NC(=S)NCc1ccccc1", "activity, negative = inhibition": "inactive: 5.02% [at 102 µM]"},
      {"smiles": "CCc1cc2c3c(c1)C(C)CC(C)(C)N3C(=O)C2=O", "note": "(configuration not stated)", "Potency": "inconclusive: 35.5 µM [inhibitor, single point]"},
      {"smiles": "Cc1ccc(OCC(=O)N2N=C(c3ccc(Cl)cc3)CC2c2ccco2)c([N+](=O)[O-])n1", "note": "(configuration not stated)", "Potency": "inconclusive: 70.8 µM [inhibitor, single point]"},
      {"smiles": "Fc1ccc(-c2cnc(-c3cccs3)o2)cc1", "Potency": "inconclusive: 15.8 µM [inhibitor, single point]"},
      {"smiles": "COc1ccc(CN2CCc3c([nH]c4ccccc34)C2)cc1Br", "Potency": "inconclusive: 1.58 µM [inhibitor, full curve, poor fit]"},
      {"smiles": "COc1ccc(-n2nc3cc(C)c(N)c(Br)c3n2)cc1", "Potency": "inconclusive: 5.01 µM [inhibitor, single point]"},
      {"smiles": "CCOc1cc(C#N)c(NC(=O)c2ccc(OC)c(S(=O)(=O)N3CCN(c4ccccc4)CC3)c2)cc1OCC", "Potency": "inconclusive: 31.6 µM [inhibitor, partial curve, poor fit]"},
      {"smiles": "N#CC1=C2SCN(C3CCCCC3)CN2C(=O)CC1c1ccc(Br)cc1", "note": "(configuration not stated)", "Potency": "active: 2.82 µM"},
      {"smiles": "Cc1cccc(OCCCCNCc2ccccc2)c1", "Potency": "active: 12.6 µM"},
      {"smiles": "CCc1cc(-c2n[nH]c(C)c2-c2ccccc2Cl)c(O)cc1OC", "Potency": "active: 39.8 µM"},
      {"smiles": "CCc1nnc2c(N3CCN(c4cccc(C(F)(F)F)c4)CC3)nc3ccccc3n12", "activity, negative = inhibition": "inactive: -6.08%"},
      {"smiles": "COc1cc(SC)ccc1C(=O)N1CCN(c2ccccc2)CC1", "activity, negative = inhibition": "inactive: 8.96% [at 102 µM]"},
      {"smiles": "CC(=O)N1CC=CC1(C)C(=O)NCc1cc(F)cc(C(F)(F)F)c1", "note": "(configuration not stated)", "Potency": "active: 39.8 µM"},
      {"smiles": "O=C(O)C1CCc2sc3[nH]c(=S)n(-c4ccccc4)c(=O)c3c21", "note": "(configuration not stated)", "Potency": "active: 2.51 µM"},
      {"smiles": "N=C1c2ccccc2CN1NC(=O)COc1ccc(Cl)cc1", "Potency": "active: 35.5 µM"},
      {"smiles": "CCc1[nH]nc2c1C(c1ccc(Br)s1)C(C#N)=C(N)O2", "note": "(configuration not stated)", "activity, negative = inhibition": "inconclusive: -68.3% [inhibitor]"},
      {"smiles": "Cc1ccc(C2CC(=O)N3CN(c4ccc(Br)cc4)CSC3=C2C#N)o1", "note": "(configuration not stated)", "Potency": "inconclusive: 3.16 µM [inhibitor, full curve, poor fit]"},
      {"smiles": "CN(Cc1ccccc1)C(=O)[C@H]1CCC(=O)N1Cc1ccco1", "Potency": "active: 44.7 µM"},
      {"smiles": "C=CCn1c(N)c(C(=O)NCc2cccnc2)sc1=S", "Potency": "inconclusive: 89.1 µM [inhibitor, single point]"},
      {"smiles": "COc1ccc2c(Cl)c(-c3nnc(SCC(=O)c4ccccc4)n3C)sc2c1", "Potency": "inconclusive: 10 µM [inhibitor, full curve, poor fit]"},
      {"smiles": "CCOC(=O)N1CCC(NC(=O)CCc2cn(C)c3ccccc23)CC1", "Potency": "inconclusive: 89.1 µM [inhibitor, partial curve, poor fit]"},
      {"smiles": "COc1cc(NC(=O)COC(=O)CO/N=C(\\C)c2ccc3c(c2)OCO3)cc(OC)c1OC", "Potency": "inconclusive: 89.1 µM [inhibitor, partial curve, poor fit]"},
      {"smiles": "Cc1cccc(C2NC(c3cccc(C)c3)C([N+](=O)[O-])C(C)(C)C2[N+](=O)[O-])c1", "note": "(configuration not stated)", "Potency": "inconclusive: 15.8 µM [inhibitor, partial curve, poor fit]"},
      {"smiles": "O=C(Nc1c(C(=O)N2CCN(c3ccccc3F)CC2)oc2ccccc12)c1ccco1", "Potency": "inconclusive: 31.6 µM [inhibitor, partial curve, poor fit]"}
    ]}
  ]
}
